The record followed here is US20180057551A1 (AMYLONIX, published 2018).

The chains are these.
B1: ABPP095b-LEHHHHHH (designed binder)
chain: AGGERVYLPNLNADQLCAFIRSLEDDPSQSSELLSEAKKLSESQAPASSSSGSSSSGRASAGGERVYLPNLNADQLCAFIRSLEDDPSQSSELLSEAKKLSESQAPKLEHHHHHH
notes: scaffold mutated ABPP095
B2: ABPP095a-LEHHHHHH (designed binder)
chain: B1 chain with S31A, E32N, S35A, S43A, S91A, E92N, S95A, S103A
notes: scaffold mutated ABPP095
B3: ABPP095c-LEHHHHHH (designed binder)
chain: B1 chain with N12T, S22K, N72T, S82K
notes: scaffold mutated ABPP095

Positions count from the first letter of the chain named.

The term koff denotes the first-order rate constant of dissociation. One may read the kon as the rate constant with which the complex forms.

One test concerns the target T1, human Aβ1-40 peptide (human, biotin at the C-terminus (flow cytometry, Examples 2-4) or at the N-terminus (SPR, ELISA); unlabeled plus Alexa488/Alexa647-labeled in FCS).
T1 construct: synthetic peptide (AnaSpec); one entry for all labelled forms, label named under assay; also called hAβ1-40; Aβ40
The test is described as follows: SPR Biacore 2000, biotinylated peptide on SA chip, 1:1 Langmuir. For orientation: In SPR one partner is held on a chip, and binding of the other changes the refractive index at the surface.
Consider B1, for which the koff turned out to be 0.00068 s⁻¹ and the on-rate (kon) stood at 50000 M⁻¹ s⁻¹.
As for B2, the koff was 0.0003 s⁻¹ and the on-rate constant (kon) worked out at 74000 M⁻¹ s⁻¹.
For B3, the off-rate (koff) is 0.00019 s⁻¹ and the kon was determined as 81000 M⁻¹ s⁻¹.

The target of a further test is T2, human Aβ1-42 peptide (human, N-terminal biotin in SPR (Example 15); unlabeled in Example 7).
T2 construct: also called hAβ1-42
The description is as above.
On to B1, for which the off-rate (koff) came out at 0.0015 s⁻¹ and the kon is 100000 M⁻¹ s⁻¹.
The molecule B2 had a koff of 0.00062 s⁻¹ and a kon of 120000 M⁻¹ s⁻¹.
In the same order, the values of B3 are 0.00036 s⁻¹ and 140000 M⁻¹ s⁻¹.
